# Reference: PubChem BioAssay AID485344 (National Center for Advancing Translational Sciences (NCATS), 2010)
# Out of some 340,000 compounds screened, about 6,900 (2%) were called active. No stated cut-off is given here; in the data, active means inhibition above about 30%; inactive means below that, where a call was filed. Only a part is listed here, and it is no random draw. Entries without a call were filed so in the source.
# Target: D(2) dopamine receptor (Homo sapiens) (UniProt P14416)
# Test: HTS Assay for Allosteric Antagonists of the Human D2 Dopamine Receptor: Primary Screen for Antagonists; further: 0% is about no effect
# Settings: HEK293 TREx D2 cells, calcium flux, dopamine EC80; at 10 µM; stronger effect = higher value
# In short: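 Antagonism is scored as inhibition of an EC80 dopamine-evoked calcium signal in a force-coupled, tetracycline-inducible HEK293 T-REx D2 line, with compound present 180 s before agonist.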
# UniProt P14416, sequence (P14416 whole entry, looked up): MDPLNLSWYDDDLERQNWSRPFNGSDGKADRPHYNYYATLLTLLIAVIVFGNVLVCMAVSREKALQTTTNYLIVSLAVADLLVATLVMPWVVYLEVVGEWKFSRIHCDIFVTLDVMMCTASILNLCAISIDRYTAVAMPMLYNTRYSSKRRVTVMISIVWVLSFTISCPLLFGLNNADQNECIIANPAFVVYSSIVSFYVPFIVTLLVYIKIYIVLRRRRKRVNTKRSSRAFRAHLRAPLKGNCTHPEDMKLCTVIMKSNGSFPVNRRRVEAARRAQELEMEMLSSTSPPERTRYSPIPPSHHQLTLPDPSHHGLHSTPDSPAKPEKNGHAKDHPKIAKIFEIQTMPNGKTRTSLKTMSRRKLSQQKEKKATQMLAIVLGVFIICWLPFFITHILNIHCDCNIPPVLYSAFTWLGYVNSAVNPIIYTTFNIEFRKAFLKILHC
row,Structure (SMILES),inhibition
1,COC(=O)c1cccnc1-n1c(=O)c2cccnc2n(CC(=O)Nc2cccc(C)c2)c1=O,-2.93%
2,COc1ccc(N2CCN(c3nc4ccc(C(=O)c5ccccc5)cc4n4cnnc34)CC2)cc1,-3.86%
3,CN(C)c1ccc(S(=O)(=O)NCC(=O)NCCC2=CCCCC2)cc1[N+](=O)[O-],active: 31.4%
4,Nc1ccc(C(=O)N/N=C/c2cccc(Oc3ccccc3)c2)cc1,active: 31.2%
5,CCOc1ccc(CN2CCN(Cc3ccc4c(c3)c3ccccc3n4CC)CC2)cc1,6.52%
6,O=C(CCn1c(=O)c2ccccc2n(Cc2cccc(F)c2)c1=O)NCc1ccc2c(c1)OCO2,-9.53%
7,Cc1cc(C)cc(N2C(=O)N(Cc3cc(=O)n4ccccc4n3)c3ccccc3S2(=O)=O)c1,17.3%
8,Cc1ccc(-c2c(C(=O)N3CCN(c4ccc(F)cc4)CC3)oc(=O)c3ccccc23)cc1,4.06%
9,CCc1nn(CC(=O)NCc2ccc(C)cc2)c(=O)c2cc3occc3n12,7.19%
10,Cc1ccccc1OCCn1cc(C(=O)c2ccco2)c2ccccc21,-7.76%
11,CC(C)COC(=O)n1c(SCC(=O)N(C)C)nc2ccccc21,active: 31.4%
12,COc1ccc(OC)c(C2CC(=O)c3c([nH]c(C(=O)OCc4ccc(C)cc4)c3C)C2)c1 (centres undefined),26.4%
13,Clc1ccc(-c2noc3ncnc(NC4CCCCC4)c23)cc1,14.3%
14,Cc1ccc(CCNC(=O)c2cnc3c(-c4ccc(F)cc4)c(C)nn3c2C)cc1,1.61%
15,O=C(Nc1nc2c(F)cccc2s1)c1ccc([N+](=O)[O-])o1,active: 32.8%
16,CCOC(=O)N1CCC(NC(=O)c2cnn(-c3ccc(OC)cc3)c2C2CCN(C(=O)OC(C)(C)C)CC2)CC1,5.86%
17,Cc1ccccc1NC(=O)COc1ccc2oc3c(c2c1)CCCC3,7.3%
18,O=C(CN1C(=O)COc2ccc(S(=O)(=O)N3CCCCCC3)cc21)N1CCN(c2ccc(F)cc2)CC1,3.22%
19,Cn1nccc1/C=C(/C#N)S(=O)(=O)c1ccccc1,active: 30.5%
20,COc1ccc(-c2cc3nc(C)c(CCC(=O)NCCc4ccc(Cl)cc4)c(C)n3n2)c(OC)c1,-3.04%
21,Cc1ccc(Cn2c(=O)c3cccnc3n(Cc3ccc(C)cc3)c2=O)cc1,-17.1%
22,Cc1cn(C)c(CC(=O)Nc2cccc(C#N)c2)c1C(=O)O,15.8%
23,Cc1ccc(CSc2ncc(Cl)c(C(=O)Oc3ccccc3F)n2)cc1,-10.8%
24,Cc1ccc(Cn2c(=O)n(-c3cccc(C(F)(F)F)c3)c(=O)c3c(C)c(C)sc32)c(C)c1,17.4%
25,COc1cccc(Cn2nnc(C(=O)NCc3ccc(Cl)cc3Cl)c2N)c1,6.83%

row,Structure (SMILES),inhibition
1,CCc1cccc(NC(=O)Cn2c(=O)n3nc(-c4cccc(F)c4)nc3c3ccccc32)c1,-10.8%
2,COc1ccc(CNC(=O)N2CCc3ccccc3C2)cc1,active: 34.1%
3,Cc1ccccc1C(=O)Nc1sc2c(c1C(=O)N1CCC(C)CC1)CCC(C)C2 (centres undefined),-17.5%
4,COc1ccc(NC(=O)c2nnn(CC(=O)Nc3ccc(C)c(C)c3)c2N)cc1OC,4.38%
5,COc1cc(CN2CCN(Cc3ccc(C)cc3)CC2)c([N+](=O)[O-])cc1OC,active: 88.1%
6,CCOc1cc2[nH]c(=O)n(CCCCC(=O)N3CCN(c4ccccc4OC)CC3)c(=O)c2cc1OCC,-18.4%
7,COc1ccc2c(c1)c1c(c(=O)n(-c3ccc(OC)c(OC)c3)c(=O)n1Cc1ccc(F)cc1)n2C,0.225%
8,Cc1cn2c(=O)cc(COC(=O)c3ccc(NC(=O)c4ccccc4C)cc3)nc2s1,4.61%
9,Cc1ccccc1CS(=O)(=O)Cc1ccc(C(=O)NCCc2ccc(Cl)cc2)o1,-4.82%
10,CCOC(=O)C1CCCN(c2c(C(=O)c3ccccc3)cnc3ccc(F)cc23)C1 (centres undefined),16.5%
11,COc1ccc(-c2c(C)c3cc(OC(=O)N4CCOCC4)ccc3oc2=O)cc1OC,-5%
12,CC(CNC(=O)c1ccc(Cn2c(=O)c3cccn3c3cccnc32)cc1)c1ccccc1 (centres undefined),-1.36%
13,COc1cc(CNC(=O)c2ccc3nc(Cc4ccccc4)oc3c2)cc(OC)c1OC,-24.4%
14,COc1cccc(C(=O)CC2(O)C(=O)N(Cc3ccccc3)c3ccccc32)c1 (centres undefined),4.75%
15,O=S(=O)(c1ccc(Br)s1)N1CCN(CCOc2ccccc2)CC1,active: 53%
16,COc1ccc(CNc2ncnc3onc(-c4ccc(F)cc4)c23)cc1,-4.55%
17,CCOc1ccccc1NC(=O)N1CCc2c(sc(C)c2CC)C1c1ccccc1 (centres undefined),-6.89%
18,CCCCNC(=O)CCCn1c(=O)c2ccccc2n(CC(=O)Nc2ccccc2OCC)c1=O,-14%
19,Cc1ccccc1NS(=O)(=O)c1ccc(C2CNC(=O)C2)cc1 (centres undefined),active: 65.6%
20,CCCc1cnc2c(c1SCC(=O)Nc1ccc(C)c(Cl)c1)c(=O)n(C)c(=O)n2C,-25.2%
21,COc1cc(/C=C(\C#N)c2nc3ccccc3[nH]2)ccc1OCc1cccc(C(F)(F)F)c1,-18%
22,O=[N+]([O-])c1ccccc1OCCCN1CCc2ccccc2C1,active: 74.8%
23,CCOc1ccccc1NC(=O)c1ccc(F)c(S(=O)(=O)NCc2ccc3c(c2)OCO3)c1,18%
24,CCOC(=O)COc1ccc(Cl)cc1C1NC(=O)NC(C)=C1C(C)=O (centres undefined),active: 30.8%
